# Reference: the supplement of paper PMC8728848
# The other results are listed elsewhere or left out.
# B1: FGFR2-Fc (protein)
# chain: MVNVTDAISSGDDEDDTDGAEDFVSENSNNKRAPYWTNTEKMEKRLHAVPAANTVKFRCPAGGNPMPTMRWLKNGKEFKQEHRIGGYKVRNQHWSLIMESVVPSDKGNYTCVVENEYGSINHTYHLDVVERSPHRPILQAGLPANASTVVGGDVEFVCKVYSDAQPHIQWIKHVEKNGSKYGPDGLPYLKVLKHSGINSSNAEVLALFNVTEADAGEYICKVSNYIGQANQSAWLTVLPKQQAPGREKEITASPDYLETRPLEQKLISEEDLAANDILDYKDDDDKV
# Key:
# Experiment in all cases: glycan array binding signal (z-score within array); higher = stronger binding
# Conditions in all cases: glycan notation: IUPAC condensed, linker removed
# [1] = molecular target: GlcNAc(b1-3)Gal(b1-4)GlcNAc(b1-3)Gal(b1-4)GlcNAc(b1-2)Man(a1-3)[GlcNAc(b1-3)Gal(b1-4)GlcNAc(b1-3)Gal(b1-4)GlcNAc(b1-2)Man(a1-6)]Man(b1-4)GlcNAc(b1-4)[Fuc(a1-6)]GlcNAc
# Procedure, shortened: (§1)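 Glycan array data were curated from 3228 arrays in the Consortium for Functional Glycomics database and kept only where the protein sequence was available. Glycan names were converted to IUPAC-condensed notation, and columns mapping to the same glycan were averaged. The binding signal is a within-array Z-score, averaged across arrays of the same protein sequence at different concentrations or buffers and across linkers. Negative Z-scores can be read as non-binding.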
# [2] = molecular target: GlcNAc(b1-3)Gal(b1-4)GlcNAc(b1-3)Gal(b1-4)GlcNAc(b1-2)[GlcNAc(b1-3)Gal(b1-4)GlcNAc(b1-3)Gal(b1-4)GlcNAc(b1-6)]Man(a1-6)[GlcNAc(b1-3)Gal(b1-4)GlcNAc(b1-3)Gal(b1-4)GlcNAc(b1-2)Man(a1-3)]Man(b1-4)GlcNAc(b1-4)[Fuc(a1-6)]GlcNAc
# Procedure, shortened: as §1
# [3] = molecular target: GlcNAc(b1-3)Gal(b1-4)GlcNAc(b1-3)Gal(b1-4)GlcNAc(b1-3)Gal(b1-4)GlcNAc(b1-2)Man(a1-3)[GlcNAc(b1-3)Gal(b1-4)GlcNAc(b1-3)Gal(b1-4)GlcNAc(b1-3)Gal(b1-4)GlcNAc(b1-2)Man(a1-6)]Man(b1-4)GlcNAc(b1-4)GlcNAc
# Procedure, shortened: as §1
# [4] = molecular target: GlcNAc(b1-3)Gal(b1-4)GlcNAc(b1-3)Gal(b1-4)GlcNAc(b1-3)Gal(b1-4)GlcNAc(b1-2)Man(a1-3)[GlcNAc(b1-3)Gal(b1-4)GlcNAc(b1-3)Gal(b1-4)GlcNAc(b1-3)Gal(b1-4)GlcNAc(b1-2)Man(a1-6)]Man(b1-4)GlcNAc(b1-4)[Fuc(a1-6)]GlcNAc
# Procedure, shortened: as §1
# [5] = molecular target: GlcNAc(b1-3)Gal(b1-4)GlcNAc(b1-3)Gal(b1-4)GlcNAc(b1-3)Gal(b1-4)GlcNAc(b1-2)[GlcNAc(b1-3)Gal(b1-4)GlcNAc(b1-3)Gal(b1-4)GlcNAc(b1-3)Gal(b1-4)GlcNAc(b1-6)]Man(a1-6)[GlcNAc(b1-3)Gal(b1-4)GlcNAc(b1-3)Gal(b1-4)GlcNAc(b1-3)Gal(b1-4)GlcNAc(b1-2)Man(a1-3)]Man(b1-4)GlcNAc(b1-4)[Fuc(a1-6)]GlcNAc
# Procedure, shortened: as §1
# [6] = molecular target: GlcNAc(b1-3)Gal(b1-4)GlcNAc(b1-3)Gal(b1-4)GlcNAc(b1-3)Gal(b1-4)GlcNAc(b1-3)Gal(b1-4)GlcNAc(b1-2)Man(a1-3)[GlcNAc(b1-3)Gal(b1-4)GlcNAc(b1-3)Gal(b1-4)GlcNAc(b1-3)Gal(b1-4)GlcNAc(b1-3)Gal(b1-4)GlcNAc(b1-2)Man(a1-6)]Man(b1-4)GlcNAc(b1-4)GlcNAc
# Procedure, shortened: as §1
# [7] = molecular target: GlcNAc(b1-3)Gal(b1-4)GlcNAc(b1-3)Gal(b1-4)GlcNAc(b1-3)Gal(b1-4)GlcNAc(b1-3)Gal(b1-4)GlcNAc(b1-2)Man(a1-3)[GlcNAc(b1-3)Gal(b1-4)GlcNAc(b1-3)Gal(b1-4)GlcNAc(b1-3)Gal(b1-4)GlcNAc(b1-3)Gal(b1-4)GlcNAc(b1-2)Man(a1-6)]Man(b1-4)GlcNAc(b1-4)[Fuc(a1-6)]GlcNAc
# Procedure, shortened: as §1
# [8] = molecular target: GlcNAc(b1-3)Gal(b1-4)GlcNAc(b1-3)Gal(b1-4)GlcNAc(b1-3)Gal(b1-4)GlcNAc(b1-3)Gal(b1-4)GlcNAc(b1-2)[GlcNAc(b1-3)Gal(b1-4)GlcNAc(b1-3)Gal(b1-4)GlcNAc(b1-3)Gal(b1-4)GlcNAc(b1-3)Gal(b1-4)GlcNAc(b1-6)]Man(a1-6)[GlcNAc(b1-3)Gal(b1-4)GlcNAc(b1-3)Gal(b1-4)GlcNAc(b1-3)Gal(b1-4)GlcNAc(b1-3)Gal(b1-4)GlcNAc(b1-2)Man(a1-3)]Man(b1-4)GlcNAc(b1-4)[Fuc(a1-6)]GlcNAc
# Procedure, shortened: as §1
# [9] = molecular target: GlcNAc(b1-3)Gal(b1-4)GlcNAc(b1-3)Gal(b1-4)GlcNAc(b1-3)GalNAc
# Procedure, shortened: as §1
# [10] = molecular target: GlcNAc(b1-3)Gal(b1-4)GlcNAc(b1-3)GalNAc
# Procedure, shortened: as §1
# [11] = molecular target: GlcNAc(b1-3)Gal(b1-4)GlcNAc(b1-3)[GlcNAc(b1-3)Gal(b1-4)GlcNAc(b1-3)]GalNAc
# Procedure, shortened: as §1
# [12] = molecular target: GlcNAc(b1-3)Gal(b1-4)GlcNAc(b1-6)[Gal(b1-3)]GalNAc
# Procedure, shortened: as §1
# [13] = molecular target: GlcNAc(b1-3)Gal(b1-4)GlcNAc(b1-6)[GlcNAc(b1-3)Gal(b1-3)]GalNAc
# Procedure, shortened: as §1
# [14] = molecular target: GlcNAc(b1-3)Gal(b1-4)GlcNAc(b1-6)[GlcNAc(b1-3)]Gal(b1-4)GlcNAc
# Procedure, shortened: as §1
# GlcNAc(b1-3)GalNAc = molecular target: GlcNAc(b1-3)GalNAc
# Procedure, shortened: as §1
# GlcNAc(b1-3)Man = molecular target: GlcNAc(b1-3)Man
# Procedure, shortened: as §1
# [15] = molecular target: GlcNAc(b1-3)[GlcNAc(b1-4)][GlcNAc(b1-6)]GlcNAc
# Procedure, shortened: as §1
# [16] = molecular target: GlcNAc(b1-3)[GlcNAc(b1-6)]Gal(b1-4)GlcNAc
# Procedure, shortened: as §1
# [17] = molecular target: GlcNAc(b1-3)[GlcNAc(b1-6)]GalNAc
# Procedure, shortened: as §1
# [18] = molecular target: GlcNAc(b1-4)Gal(b1-4)GlcNAc
# Procedure, shortened: as §1
# GlcNAc(b1-4)GlcNAc = molecular target: GlcNAc(b1-4)GlcNAc
# Procedure, shortened: as §1
# [19] = molecular target: GlcNAc(b1-4)GlcNAc(b1-4)GlcNAc
# Procedure, shortened: as §1
# [20] = molecular target: GlcNAc(b1-4)GlcNAc(b1-4)GlcNAc(b1-4)GlcNAc(b1-4)GlcNAc
# Procedure, shortened: as §1
# [21] = molecular target: GlcNAc(b1-4)GlcNAc(b1-4)GlcNAc(b1-4)GlcNAc(b1-4)GlcNAc(b1-4)GlcNAc
# Procedure, shortened: as §1
# [22] = molecular target: GlcNAc(b1-4)[GlcNAc(b1-6)]GalNAc
# Procedure, shortened: as §1
# [23] = molecular target: GlcNAc(b1-6)Gal(b1-4)GlcNAc
# Procedure, shortened: as §1
# GlcNAc(b1-6)GalNAc = molecular target: GlcNAc(b1-6)GalNAc
# Procedure, shortened: as §1
# [24] = molecular target: GlcNAc6S(b1-3)Gal(b1-4)GlcNAc
# Procedure, shortened: as §1
# Kdn(a2-3)Gal(b1-3)GalNAc = molecular target: Kdn(a2-3)Gal(b1-3)GalNAc
# Procedure, shortened: as §1
# Kdn(a2-3)Gal(b1-3)GlcNAc = molecular target: Kdn(a2-3)Gal(b1-3)GlcNAc
# Procedure, shortened: as §1
# Kdn(a2-3)Gal(b1-4)Glc = molecular target: Kdn(a2-3)Gal(b1-4)Glc
# Procedure, shortened: as §1
# Kdn(a2-3)Gal(b1-4)GlcNAc = molecular target: Kdn(a2-3)Gal(b1-4)GlcNAc
# Procedure, shortened: as §1
# [25] = molecular target: Kdn(a2-3)Gal(b1-4)[Fuc(a1-3)]GlcNAc
# Procedure, shortened: as §1
# Kdn(a2-6)Gal(b1-4)GlcNAc = molecular target: Kdn(a2-6)Gal(b1-4)GlcNAc
# Procedure, shortened: as §1
# [26] = molecular target: Man(a1-2)Man(a1-2)Man(a1-3)Man
# Procedure, shortened: as §1
# [27] = molecular target: Man(a1-2)Man(a1-2)Man(a1-6)[Man(a1-3)]Man
# Procedure, shortened: as §1
# Man(a1-2)Man(a1-3)Man = molecular target: Man(a1-2)Man(a1-3)Man
# Procedure, shortened: as §1
# [28] = molecular target: Man(a1-2)Man(a1-3)[Man(a1-2)Man(a1-6)]Man
# Procedure, shortened: as §1
binder,measurement,setting,value
B1,glycan array binding signal (z-score),[1],-0.077
same,glycan array binding signal (z-score),[2],0.724
same,glycan array binding signal (z-score),[3],0.005
same,glycan array binding signal (z-score),[4],0.272
same,glycan array binding signal (z-score),[5],0.322
same,glycan array binding signal (z-score),[6],0.739
same,glycan array binding signal (z-score),[7],0.274
same,glycan array binding signal (z-score),[8],0.822
same,glycan array binding signal (z-score),[9],0.549
same,glycan array binding signal (z-score),[10],-0.356
same,glycan array binding signal (z-score),[11],-0.174
same,glycan array binding signal (z-score),[12],-0.199
same,glycan array binding signal (z-score),[13],-0.384
same,glycan array binding signal (z-score),[14],-0.146
same,glycan array binding signal (z-score),GlcNAc(b1-3)GalNAc,-0.187
same,glycan array binding signal (z-score),GlcNAc(b1-3)Man,-0.21
same,glycan array binding signal (z-score),[15],-1.12
same,glycan array binding signal (z-score),[16],0.399
same,glycan array binding signal (z-score),[17],-0.018
same,glycan array binding signal (z-score),[18],-0.052
same,glycan array binding signal (z-score),GlcNAc(b1-4)GlcNAc,-0.264
same,glycan array binding signal (z-score),[19],-0.354
same,glycan array binding signal (z-score),[20],0.035
same,glycan array binding signal (z-score),[21],-0.087
same,glycan array binding signal (z-score),[22],0.601
same,glycan array binding signal (z-score),[23],-0.048
same,glycan array binding signal (z-score),GlcNAc(b1-6)GalNAc,-0.167
same,glycan array binding signal (z-score),[24],0.175
same,glycan array binding signal (z-score),Kdn(a2-3)Gal(b1-3)GalNAc,-0.212
same,glycan array binding signal (z-score),Kdn(a2-3)Gal(b1-3)GlcNAc,-0.12
same,glycan array binding signal (z-score),Kdn(a2-3)Gal(b1-4)Glc,0.018
same,glycan array binding signal (z-score),Kdn(a2-3)Gal(b1-4)GlcNAc,0.596
same,glycan array binding signal (z-score),[25],0.106
same,glycan array binding signal (z-score),Kdn(a2-6)Gal(b1-4)GlcNAc,-0.47
same,glycan array binding signal (z-score),[26],-0.008
same,glycan array binding signal (z-score),[27],-0.626
same,glycan array binding signal (z-score),Man(a1-2)Man(a1-3)Man,-0.428
same,glycan array binding signal (z-score),[28],-0.403
